The record followed here is a compilation of properties of binary mixtures (doi:10.1016/j.cclet.2012.09.020).

The nature of this series: xn = mol fraction of the nth substance listed. Particulars: 298.15 K, 101 kPa.

Some of these densities may be calculated back from excess volumes.

In the case of `CC[n+]1ccn(C)c1.O=[N+]([O-])[O-]` + CCO, the mass density amounted to 1208.5 kg/m3 (x2 = 0); 1157.2 kg/m3 (x2 = 0.2); 1130.8 kg/m3 (x2 = 0.332); 1117 kg/m3 (x2 = 0.3996); 1089.4 kg/m3 (x2 = 0.5); 1054.8 kg/m3 (x2 = 0.6). For the same compound, the mass density is, setting by setting: (x2 = 0.7063) 1009.1 kg/m3; (x2 = 0.799) 958.3 kg/m3; (x2 = 0.9005) 891.3 kg/m3.
On to `CCO` + CC[n+]1ccn(C)c1.O=[N+]([O-])[O-], for which the mass density (x1 = 1) was determined as 787.9 kg/m3.
`CO` + CC[n+]1ccn(C)c1.O=[N+]([O-])[O-]: the mass density (x1 = 1) is listed as 791.4 kg/m3.
In the case of `CC[n+]1ccn(C)c1.O=[N+]([O-])[O-]` + CO, the mass density worked out at 1208.5 kg/m3 (x2 = 0); 1188.6 kg/m3 (x2 = 0.1005); 1176 kg/m3 (x2 = 0.2004); 1158.2 kg/m3 (x2 = 0.2997); 1144.3 kg/m3 (x2 = 0.4005); 1122.4 kg/m3 (x2 = 0.501). Further, the mass density reads like this: (x2 = 0.6) 1091.6 kg/m3; (x2 = 0.7) 1054.6 kg/m3; (x2 = 0.8) 1000.7 kg/m3; (x2 = 0.9) 918.4 kg/m3.
